B1: hemC L66A (protein)
chain: MLDNVLRIATRQSPLALWQAHYVKDKLMASHPGLVVELVPMVTRGDVILDTPLAKVGGKGLFVKEAEVALLENRADIAVHSMKDVPVEFPQGLGLVTICEREDPRDAFVSNNYDSLDALPAGSIVGTSSLRRQCQLAERRPDLIIRSLRGNVGTRLSKLDNGEYDAIILAVAGLKRLGLESRIRAALPPEISLPAVGQGAVGIECRLDDSRTRELLAALNHHETALRVTAERAMNTRLEGGCQVPIGSYAELIDGEIWLRALVGAPDGSQIIRGERRGAPQDAEQMGISLAEELLNNGAREILAEVYNGDAPA
B2: hemC V171Q (protein)
chain: MLDNVLRIATRQSPLALWQAHYVKDKLMASHPGLVVELVPMVTRGDVILDTPLAKVGGKGLFVKELEVALLENRADIAVHSMKDVPVEFPQGLGLVTICEREDPRDAFVSNNYDSLDALPAGSIVGTSSLRRQCQLAERRPDLIIRSLRGNVGTRLSKLDNGEYDAIILAQAGLKRLGLESRIRAALPPEISLPAVGQGAVGIECRLDDSRTRELLAALNHHETALRVTAERAMNTRLEGGCQVPIGSYAELIDGEIWLRALVGAPDGSQIIRGERRGAPQDAEQMGISLAEELLNNGAREILAEVYNGDAPA
B3: hemB F310D (protein)
chain: MTDLIQRPRRLRKSPALRAMFEETTLSLNDLVLPIFVEEEIDDYKAVEAMPGVMRIPEKHLAREIERIANAGIRSVMTFGISHHTDETGSDAWREDGLVARMSRICKQTVPEMIVMSDTCFCEYTSHGHCGVLCEHGVDNDATLENLGKQAVVAAAAGADFIAPSAAMDGQVQAIRQALDAAGFKDTAIMSYSTKFASSFYGPFREAAGSALKGDRKSYQMNPMNRREAIRESLLDEAQGADCLMVKPAGAYLDIVRELRERTELPIGAYQVSGEYAMIKFAALAGAIDEEKVVLESLGSIKRAGADLIDSYFALDLAEKKILR
B4: hemB L244Q (protein)
chain: MTDLIQRPRRLRKSPALRAMFEETTLSLNDLVLPIFVEEEIDDYKAVEAMPGVMRIPEKHLAREIERIANAGIRSVMTFGISHHTDETGSDAWREDGLVARMSRICKQTVPEMIVMSDTCFCEYTSHGHCGVLCEHGVDNDATLENLGKQAVVAAAAGADFIAPSAAMDGQVQAIRQALDAAGFKDTAIMSYSTKFASSFYGPFREAAGSALKGDRKSYQMNPMNRREAIRESLLDEAQGADCQMVKPAGAYLDIVRELRERTELPIGAYQVSGEYAMIKFAALAGAIDEEKVVLESLGSIKRAGADLIFSYFALDLAEKKILR
B5: hemB F310P (protein)
chain: MTDLIQRPRRLRKSPALRAMFEETTLSLNDLVLPIFVEEEIDDYKAVEAMPGVMRIPEKHLAREIERIANAGIRSVMTFGISHHTDETGSDAWREDGLVARMSRICKQTVPEMIVMSDTCFCEYTSHGHCGVLCEHGVDNDATLENLGKQAVVAAAAGADFIAPSAAMDGQVQAIRQALDAAGFKDTAIMSYSTKFASSFYGPFREAAGSALKGDRKSYQMNPMNRREAIRESLLDEAQGADCLMVKPAGAYLDIVRELRERTELPIGAYQVSGEYAMIKFAALAGAIDEEKVVLESLGSIKRAGADLIPSYFALDLAEKKILR
B6: hemD I32P (protein)
chain: MSILVTRPSPAGEELVSRLRTLGQVAWHFPLPEFSPGQQLPQLADQLAALGESDLLFALSQHAVAFAQSQLHQQDRKWPRLPDYFAIGRTTALALHTVSGQKILYPQDREISEVLLQLPELQNIAGKRALILRGNGGRELIGDTLTARGAEVTFCECYQRCAIHYDGAEEAMRWQAREVTMVVVTSGEMLQQLWSLIPQWYREHWLLHCRLLVVSERLAKLARELGWQDIKVADNADNDALLRALQ
B7: hemD L56W (protein)
chain: MSILVTRPSPAGEELVSRLRTLGQVAWHFPLIEFSPGQQLPQLADQLAALGESDLWFALSQHAVAFAQSQLHQQDRKWPRLPDYFAIGRTTALALHTVSGQKILYPQDREISEVLLQLPELQNIAGKRALILRGNGGRELIGDTLTARGAEVTFCECYQRCAIHYDGAEEAMRWQAREVTMVVVTSGEMLQQLWSLIPQWYREHWLLHCRLLVVSERLAKLARELGWQDIKVADNADNDALLRALQ
B8: hemD L56A (protein)
chain: MSILVTRPSPAGEELVSRLRTLGQVAWHFPLIEFSPGQQLPQLADQLAALGESDLAFALSQHAVAFAQSQLHQQDRKWPRLPDYFAIGRTTALALHTVSGQKILYPQDREISEVLLQLPELQNIAGKRALILRGNGGRELIGDTLTARGAEVTFCECYQRCAIHYDGAEEAMRWQAREVTMVVVTSGEMLQQLWSLIPQWYREHWLLHCRLLVVSERLAKLARELGWQDIKVADNADNDALLRALQ

± gives the standard deviation of the averaged measurements. Laboratory Escherichia coli strains with one amino-acid change in an essential protein, pooled on minimal glucose agar with carbenicillin or gentamicin at twice the control MIC (plus kanamycin and chloramphenicol for the plasmids), 48 h. Fold change of barcode share against drug-free plates; higher = less susceptible. Active = above 20 in both replicates (the paper's putatively resistant). '<' = one read or none on drug, '>' = one read or none on a drug-free plate. Shares are relative, so most strains fall below 1 when a few take over. Listed are strains with at least 15 reads on both drug-free plates, and hits; most hits rest on fewer reference reads. Replicate rank correlation about 0.5. Edits are read from barcodes.

The data set has as its target Escherichia coli (laboratory strain). The data set can be described thus: barcode share on antibiotic plates over drug-free plates; higher = less susceptible. The following applies: antibiotic: gentamicin; 2× MIC (MIC 0.45 µg/mL). The procedure:
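A pool of E. coli strains, each edited to carry one amino-acid change in an essential protein, was grown for 48 h on minimal glucose agar with or without antibiotic; strain barcodes were sequenced; mean of two replicates.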
For B1, the “fold change of barcode share” value is > 1260 [active].
Regarding B2, the “fold change of barcode share” value is < 0.0172.
Turning to B3, the “fold change of barcode share” value was found to be 0.00785 ± 0.0042.
The result for B4 reads 0.0203 ± 0.0013; that for B5, 0.0474 ± 0.028.
The result for B6 reads > 145 [active].
The result for B7 reads < 0.0133; that for B8, < 0.0215.

These data come from the supplement of paper PMC11876631.
